The campaign covered roughly 350,000 compounds. About 31,000 (8.9%) were called active. The inconclusive results got no clear call from the source; some entries with a clear call stand among them for comparison. Calls follow the shape of the dose curve; as a rule, active = well fitted inhibition curve with a large enough effect; inconclusive = small, poorly fitted or top-dose-only effect; inactive = no such curve, though single readings can be large or run the other way. Potencies of inconclusive entries are doubtful fits and often do not repeat.
These compounds were tested against Histone-lysine N-methyltransferase EHMT2 (Homo sapiens) (UniProt Q96KQ7) (assay: qHTS Assay for Inhibitors of Histone Lysine Methyltransferase G9a). Conditions: G9a H3K9 monomethylation, AlphaScreen, 2 h; activity, negative = inhibition: at 59 µM (top of the series) unless noted.
UniProt Q96KQ7, sequence (Q96KQ7 whole entry, looked up): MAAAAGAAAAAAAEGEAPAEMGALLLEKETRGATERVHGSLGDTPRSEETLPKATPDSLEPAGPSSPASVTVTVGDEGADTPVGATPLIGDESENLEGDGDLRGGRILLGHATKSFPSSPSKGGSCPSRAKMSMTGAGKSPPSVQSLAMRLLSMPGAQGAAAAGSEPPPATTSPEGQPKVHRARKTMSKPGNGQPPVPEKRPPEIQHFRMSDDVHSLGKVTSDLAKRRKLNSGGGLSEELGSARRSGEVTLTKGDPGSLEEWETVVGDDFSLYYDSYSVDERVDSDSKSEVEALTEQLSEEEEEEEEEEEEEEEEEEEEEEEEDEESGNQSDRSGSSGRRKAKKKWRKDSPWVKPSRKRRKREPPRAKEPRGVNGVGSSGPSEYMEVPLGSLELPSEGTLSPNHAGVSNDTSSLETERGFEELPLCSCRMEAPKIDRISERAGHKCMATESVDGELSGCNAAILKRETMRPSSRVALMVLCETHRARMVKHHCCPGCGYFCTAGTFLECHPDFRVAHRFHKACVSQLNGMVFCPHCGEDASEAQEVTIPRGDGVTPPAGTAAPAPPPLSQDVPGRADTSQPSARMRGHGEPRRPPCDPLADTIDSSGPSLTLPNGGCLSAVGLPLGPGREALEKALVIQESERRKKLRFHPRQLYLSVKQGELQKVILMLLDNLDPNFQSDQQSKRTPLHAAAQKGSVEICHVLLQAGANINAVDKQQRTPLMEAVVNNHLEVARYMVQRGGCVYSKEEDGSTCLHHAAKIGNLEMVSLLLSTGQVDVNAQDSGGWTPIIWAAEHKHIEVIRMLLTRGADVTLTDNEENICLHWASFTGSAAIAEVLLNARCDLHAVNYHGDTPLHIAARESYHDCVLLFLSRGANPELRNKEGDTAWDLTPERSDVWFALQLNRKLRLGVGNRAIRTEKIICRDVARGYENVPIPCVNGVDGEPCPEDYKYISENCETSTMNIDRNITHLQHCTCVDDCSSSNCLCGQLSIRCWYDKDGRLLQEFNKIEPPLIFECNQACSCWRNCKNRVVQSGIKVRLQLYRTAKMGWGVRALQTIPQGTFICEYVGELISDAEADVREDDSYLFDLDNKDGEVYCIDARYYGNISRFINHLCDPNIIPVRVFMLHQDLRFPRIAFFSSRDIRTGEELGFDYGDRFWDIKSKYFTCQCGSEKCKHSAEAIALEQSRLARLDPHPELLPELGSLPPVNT
Outline: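 G9a (20 nM) was preincubated 15 min with compound, then reacted 2 h at room temperature with 500 nM biotin-H3K9 peptide and 20 µM SAM. Monomethyl-H3K9 detected by AlphaScreen using anti-H3K9me1 antibody.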
% is scaled to controls: 0 for no effect and ±100 for the full control effect; potency is read from the fitted curve at half-maximal effect; tags tell the direction and shape of the fitted curve.
Also: nearly all actives have a fitted effect of over 75% in size.

SMILES	Potency	activity, negative = inhibition
CC(C)c1ccc(N(C(=O)c2snc(C(N)=O)c2N)C(C(=O)NC2CCCC2)c2ccncc2)cc1 (stereo not drawn)	inconclusive: 56.2 µM [inhibitor, single point]	–
Cc1cccc(NC(=O)CSc2nc(-c3ccccc3Cl)nc3c2Cc2c(CO)cnc(C)c2O3)c1C	–	inactive: 4.97%
CCOc1cc(CNc2ccc(N3CCN(C(C)=O)CC3)cc2)cc(Br)c1OC	active: 28.2 µM	–
N#Cc1ccsc1NC(=O)C1CCN(C(=O)c2ccc(F)cc2)CC1	inconclusive: 35.5 µM [inhibitor, single point]	–
O=C(NNc1nc2cc3c(cc2s1)OCCO3)c1ccccc1	active: 39.8 µM	–
CC(=O)OCC(=O)[C@@]1(O)CC[C@H]2[C@@H]3CCC4=CC(=O)CC[C@]4(C)[C@H]3C(=O)C[C@@]21C	inconclusive: 5.32 µM [inhibitor, single point]	inconclusive: -98.7% [inhibitor]
CCOC(=O)c1c(-c2ccccc2)csc1NC(=O)c1nn(CC)cc1Br	–	inconclusive: -91.9% [inhibitor]
CC(=O)N(Cc1cc2c(C)cc(C)cc2[nH]c1=O)C1CCCCC1	inconclusive: 79.4 µM [inhibitor, partial curve]	–
Cc1ccc(NC(=O)COc2coc(CN3CCc4ccccc43)cc2=O)c(C)c1	inconclusive: 50.1 µM [inhibitor, partial curve]	–
COc1ccc(S(=O)(=O)N2CCN(c3ccccc3OC)CC2)cc1OC	–	inactive: -3.75% [at 102 µM]
CC(=O)Nc1ccc(CN2CCc3c([nH]c4ccccc34)C2c2ccccn2)cc1 (stereo not drawn)	inconclusive: 44.7 µM [inhibitor, partial curve, poor fit]	–
CC(C)[C@H](NC(=O)N1CCC(Cc2ccccc2)CC1)C(=O)O	inconclusive: 56.2 µM [inhibitor, partial curve, poor fit]	–
Cn1cc(CNC(=O)c2cc(-c3ccc(Br)cc3)nc3ccccc23)cn1	inconclusive: 79.4 µM [inhibitor, single point]	–
COc1ccc(/C=C(/CC(=O)Nc2ccc(C)cc2)c2nc3ccccc3s2)cc1	inconclusive: 25.1 µM [inhibitor, single point]	–
CCOC(=O)c1cc(C#N)c(N2CCN(c3ccc(OC)cc3)CC2)[nH]c1=O	active: 5.01 µM	–
O=C(COC(=O)c1ccccc1)NC(=O)NC1CCCC1	inconclusive: 89.1 µM [inhibitor, single point]	–
CC1CCN(c2ccccc2NC(=S)NC(=O)C(C)(C)C)CC1	inconclusive: 39.8 µM [inhibitor, partial curve, poor fit]	–
CC1CCN(CCCCOc2ccc(C(C)(C)C)cc2)CC1	active: 39.8 µM	–
CC(C)c1ccc(NC2=NCC(=O)N2Cc2cccs2)cc1	inconclusive: 89.1 µM [inhibitor, single point]	–
CCc1ccccc1NC(=O)c1ccc(CN2C(=O)CCn3nc(C)cc32)cc1	inconclusive: 7.08 µM [inhibitor, single point]	–
ClCc1csc(N/N=C/c2cccs2)n1	inconclusive: 28.2 µM [inhibitor, single point]	–
c1ccc2c(c1)CCN(c1nc(CN3CCOCC3)nc3sc4c(c13)CCCC4)C2	inconclusive: 25.1 µM [inhibitor, single point]	–
O=C(c1cc(-c2ccco2)nc2ccccc12)N1CCN(c2ccc(F)cc2)CC1	inconclusive: 22.4 µM [inhibitor, partial curve, poor fit]	–

SMILES	Potency	activity, negative = inhibition
O=C(CSc1nc2ccccc2nc1SCC(=O)N1CCOCC1)N1CCOCC1	inconclusive: 28.2 µM [inhibitor, single point]	–
CCc1ccc(NC(=O)Cn2c(=O)n(-c3ccc(OC)cc3)c(=O)c3ccc(C(=O)NCc4ccc(C)cc4)cc32)cc1	–	inactive: 17.2%
O=C(Oc1ccc([N+](=O)[O-])cc1)c1cc(-c2ccccc2)nc2ccccc12	inconclusive: 14.1 µM [inhibitor, partial curve]	–
Cc1ccc(S(=O)(=O)c2nc(-c3ccco3)oc2SCC(N)=O)cc1	inconclusive: 44.7 µM [inhibitor, partial curve, poor fit]	–
COc1ccc(C(C)=O)cc1CN(C)C	inconclusive: 20 µM [inhibitor, single point]	–
COCC(C)NC(=O)c1ccc(Cl)c(Cl)c1 (stereo not drawn)	inconclusive: 25.1 µM [inhibitor, partial curve, poor fit]	–
O=C(CNC(=O)c1cccc(F)c1)OCC(=O)N1CCN(C(=O)c2ccco2)CC1	–	inactive: -11.9%
Nc1[nH][nH]c(=O)c1N=Nc1cccc(Cl)c1	inconclusive: 39.8 µM [inhibitor, partial curve]	–
Cc1ccc(C(=O)CN2C(=O)NC3(CCc4ccccc43)C2=O)s1 (stereo not drawn)	–	inactive: -96.3%
CCc1nn(CC(=O)NC(C)CCc2ccccc2)c(=O)c2cc3c(OC)cccc3n12 (stereo not drawn)	–	inactive: 26.3%
Cc1ccc(C(=O)C(C)OC(=O)Cn2c(C)csc2=O)cc1 (stereo not drawn)	inconclusive: 50.1 µM [inhibitor, partial curve, poor fit]	–
C=CCOc1c(OC)cc(/C=N/Nc2cccc(C(=O)O)c2)c(Br)c1Br	active: 10 µM	–
COc1ccccc1CNC(=O)CS(=O)(=O)c1ccccc1	–	inactive: 48.3% [at 102 µM]
Nc1nc(O)c(N=Nc2ccc(S(N)(=O)=O)cc2)c(=O)[nH]1	inconclusive: 44.7 µM [inhibitor, partial curve]	–
COc1ccc(CNC(=O)Cc2ccc(NC(=O)N3CCSc4ncccc43)cc2)cc1	inconclusive: 2.24 µM [inhibitor, full curve, poor fit]	–
CCN(CC)CCCNc1nc(SC)nc2sc3c(c12)CCN(C)C3	inconclusive: 89.1 µM [inhibitor, single point]	–
OC1(c2ccccc2)Cc2cccc[n+]2C1c1ccccc1 (stereo not drawn)	–	inconclusive: -56.7% [inhibitor]
COc1ccc(-c2cccc(NS(=O)(=O)c3ccc([N+](=O)[O-])cc3)c2)nn1	inconclusive: 89.1 µM [inhibitor, partial curve, poor fit]	–
O=C(O)CC1S/C(=N\N=C2\C(=O)Nc3ccccc32)N(c2ccc(O)cc2)C1=O (stereo not drawn)	–	inactive: 3.52% [at 102 µM]
COc1ccc(N=c2cc(-c3ccc(O)cc3)oc3ccccc23)cc1	inconclusive: 31.6 µM [inhibitor, single point]	–
Cn1c(=O)c2c(nc(N3CCOCC3)n2Cc2ccc(Br)cc2)n(C)c1=O	–	inactive: -38.4%
Cc1nc2sc(C(c3ccco3)N3CCC(C)CC3)c(O)n2n1 (stereo not drawn)	inconclusive: 39.8 µM [inhibitor, single point]	–
N#Cc1ccc(COC(=O)C2CC(=O)N(CCc3ccccc3)C2)cc1 (stereo not drawn)	inconclusive: 11.2 µM [inhibitor, partial curve, poor fit]	–

SMILES	Potency	activity, negative = inhibition
CCOC(=O)c1ccc(CNCc2ccccc2)cc1	inconclusive: 79.4 µM [inhibitor, single point]	–
COc1ccc(C(=O)/C=C/Nc2c(C)n(C)n(-c3ccccc3)c2=O)cc1OC	inconclusive: 50.1 µM [inhibitor, partial curve, poor fit]	–
CCO/C(=C/c1sc2ccc(OC)cc2[n+]1CCCS(=O)(=O)[O-])CC	–	inactive: -2.73%
Cc1ccc(S(=O)(=O)N2CCc3cc(C(=O)Nc4c(F)cccc4F)ccc32)cc1	–	inactive: -7.62%
O=C1CCCC/C1=C/NCc1ccccc1	inconclusive: 79.4 µM [inhibitor, partial curve, poor fit]	–
O=C(CN1CCC(N2CCCCC2)CC1)N1CCOCC1	active: 17.8 µM	–
O=C1c2ccccc2C(=O)c2c(NCCc3ccc(O)cc3)ccc(NCCc3ccc(O)cc3)c21	active: 1.78 µM	–
O=C(CSc1ccc(-c2ccccn2)nn1)Nc1ccc(F)cc1F	active: 3.16 µM	–
CCOC(=O)NN1C(=O)c2ccccc2NC1c1cccc(O)c1 (stereo not drawn)	inconclusive: 0.316 µM [inhibitor, partial curve, poor fit]	–
COc1cc([N+](=O)[O-])ccc1NC(=O)Cn1ccsc1=N	inconclusive: 79.4 µM [inhibitor, partial curve, poor fit]	–
COC(=O)c1c(NS(=O)(=O)c2ccc3ccccc3c2)sc2c1CCCC2	inconclusive: 89.1 µM [inhibitor, single point]	–
CCN(CC)c1ccc(/C=C2/C(=O)c3ccc(C(=O)O)cc3C2=O)cc1	active: 12.6 µM	–
CC1=C[C@@H](O)CC(C)(C)[C@@H]1/C=C/C(C)=C/C=C/C(C)=C/C=C/C=C(C)/C=C/C=C(C)/C=C/C1=C(C)C[C@H](O)CC1(C)C	inconclusive: 2.82 µM [inhibitor, partial curve, poor fit]	–
CCc1ccc(N2CC(C(=O)Nc3ccc(S(=O)(=O)NCC4CCCO4)cc3)CC2=O)cc1 (stereo not drawn)	–	inactive: -9% [at 102 µM]
COc1ccc(NC(=O)C2CCN(c3ccc(Sc4ccc(C)cc4)nn3)CC2)c(OC)c1	–	inactive: -3.36%
OC(COc1ccc(Cl)cc1)CN1C2=NCCCN2c2ccccc21 (stereo not drawn)	inconclusive: 0.891 µM [inhibitor, single point]	–
C=CCN(C(=O)Nc1ccc(F)cc1)C1CC(=O)N(c2ccc(OC)cc2)C1=O (stereo not drawn)	inconclusive: 22.4 µM [inhibitor, full curve]	–
COc1cccc(/C=N/Nc2ccc(S(=O)(=O)O)cc2)c1O	active: 2.24 µM	–
CC(=N/O)/C(=N\O)c1ccc(C)o1	inconclusive: 28.2 µM [inhibitor, single point]	–
O=C(O)c1ccc(/C=N/Nc2cccc(C(F)(F)F)c2)cc1	inconclusive: 56.2 µM [inhibitor, partial curve, poor fit]	–
CC(=O)N1CCc2cc(S(=O)(=O)NC(Cc3ccccc3)C(=O)NCc3ccc(C)cc3)ccc21 (stereo not drawn)	–	inactive: -7.19%
